Laboratory results reported in PubChem BioAssay AID1963576 (National Center for Advancing Translational Sciences (NCATS), 2024).
Screen size: about 46,000 compounds; about 60 (0.1%) were called active. Not shown: some 3% with an inconclusive outcome. Calls come from the whole dose curve; as a rule, active = well fitted inhibition curve with a large enough effect; inconclusive = small, poorly fitted or top-dose-only effect; inactive = no such curve, though single readings can be large or run the other way. This is one part of the list.

experiment: Primary qHTS assay for Inhibitors of ovarian cancer metastasis using an organotypic tumor microenvironment (TME) model.; note: nearly all actives have a fitted effect of over 65% in size;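 for activity change, negative = inhibition: plate controls were DMSO wells for no effect and tomatine positive control wells for full effect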; conditions: SKOV3ip1-GFP adhesion/invasion on 3D omental model, fluorescence; series mostly up to 45.8 µM; activity change, negative = inhibition: at the top concentration
In short: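 A 3D layer of primary human omental fibroblasts, mesothelial cells, fibronectin and collagen I, grown 48 hr, received SKOV3ip1-GFP cells in serum-free medium plus compounds at 0.36-46 umol/L. After 2 hr RT and 16 hr 37 C, fixed adherent GFP cells were counted; normalized to DMSO and tomatine.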

| Structure (SMILES) | activity change, negative = inhibition | outcome |
| --- | --- | --- |
| CC(=O)c1cccc(NC(=O)c2cc(C)nc3c2c(C)nn3-c2cccc(Cl)c2C)c1 | inactive: -10.3% | – |
| CC(C)NC(=O)CN1C(=O)c2cccnc2Sc2ccccc21 | inactive: 27.9% | – |
| Cc1ccc(CCNC(=O)CCS(=O)(=O)c2cc3c(cc2Cl)NC(=O)CO3)cc1 | inactive: 37.3% | – |
| COc1cc(NC(=O)c2nc3ccccc3n(C)c2=O)cc(OC)c1OC | inactive: 7.24% | – |
| COc1ccc(NC(=O)Cn2nc(C(F)(F)F)c3c2CCCC3)cc1OC | inactive: -5.36% | – |
| COc1cccc(-c2nn3c(=O)cc(CN4CCN(C(=O)/C=C/c5ccccc5)CC4)nc3s2)c1 | – | inactive |
| Cc1cccc(N2CCN(C(=O)c3ccc4c(Cl)c5c(nc4c3)CCCC5)CC2)c1C | inactive: -0.714% | – |
| CCOc1ccccc1NC(=O)C1=C(C)Nc2ncnn2C1c1cccs1 (stereo not given) | – | inactive |
| CCOc1ccc(CNC(=O)CCS(=O)(=O)c2ccc3c(c2)oc(=O)n3C)cc1 | inactive: -3.47% | – |
| CC(C)c1cc(C(=O)NCc2ccccc2)no1 | inactive: 3.76% | – |
| Cc1ccc(NC(=O)Cn2c(=O)n(Cc3ccc(C(=O)NCc4ccc5c(c4)OCO5)cc3)c(=O)c3ccccc32)cc1 | inactive: 12% | – |
| COc1ccc(NC(=O)c2csnn2)cc1 | inactive: -12.8% | – |
| Cc1ccc(-c2nc(-c3cc4cccc(OCc5ccccc5F)c4oc3=O)no2)cc1 | – | inactive |
| COC(=O)c1c(-c2ccc(Cl)cc2)noc1N1CCN(c2ccc(F)cc2)CC1 | inactive: -4.75% | – |
| COc1ccc(NC(=O)Nc2nnc(N(C)C3CCCCC3)s2)c(OC)c1 | inactive: 0.293% | – |
| COc1cc(C(=O)Nc2ccc(OCc3cc(=O)n4cc(C)sc4n3)cc2)cc(OC)c1OC | – | inactive |
| O=C(NCCc1ccccc1)c1c[nH]c2ccc(S(=O)(=O)Nc3ccccc3F)cc2c1=O | inactive: 0.969% | – |
| Cc1ccccc1NC(=O)CSc1nc2c(oc3ccccc32)c(=O)n1-c1ccccc1F | – | inactive |
| O=C(Nc1ccc(O)c(-c2nc3ccccc3o2)c1)c1ccco1 | inactive: 0.437% | – |
| CCOC(=O)c1sc(NC(=O)COc2ccccc2Cl)c(C(=O)OCC)c1C | inactive: 3.98% | – |
| COCCNC(=O)c1cc(Sc2ccc(F)cc2F)nc2ccccc12 | inactive: -3.85% | – |
| COc1cc(OC)c(NC(=O)Nc2ccccc2OCc2cc(=O)n3cc(C)ccc3n2)cc1Cl | inactive: 6.53% | – |
| COc1ccc(C)cc1NC(=O)CCS(=O)(=O)c1ccc2c(c1)CC(=O)N2C | – | inactive |
| CCc1ccc(S(=O)(=O)c2nnn3c2nc(NC2CCCC2)c2sccc23)cc1 | inactive: -3.45% | – |

| Structure (SMILES) | activity change, negative = inhibition | outcome |
| --- | --- | --- |
| COc1ccc(CCNC(=O)CCc2c(C)nc3nc(C)nn3c2C)cc1OC | – | inactive |
| CC(=O)N1CCN(c2ccc(OCc3nn(C)c(C)c3-c3cccc4c(CCCOc5cccc6ccccc56)c(C(=O)O)n(Cc5cccnc5)c34)cc2)CC1 | inactive: -19.1% | – |
| CC1=C(C(=O)OCC2CCCCC2)C(c2c(F)cccc2Cl)CC(=O)N1 (stereo not given) | inactive: 4.59% | – |
| COc1ccc(Cn2c(SCc3ccc(C(=O)NCc4ccccc4F)cc3)nc3cccnc32)cc1 | – | inactive |
| Cc1cccc(-n2c(=O)c3c(c4cc(C)ccc4n3C)n(Cc3ccccc3F)c2=O)c1 | – | inactive |
| CC(=O)N1c2nc(-c3ccco3)nn2C2(CCCCC2)[C@@H]2CCCC[C@@H]21 | – | inactive |
| COc1ccc(NC(=O)CN(C)S(=O)(=O)c2ccc3[nH]c4c(c3c2)CCCC4)cc1Cl | inactive: -14.3% | – |
| O=C(c1ccc2c(c1)N(Cc1ccc(F)cc1)C(=O)c1ccccc1S2(=O)=O)N1CCC(Cc2ccccc2)CC1 | – | inactive |
| COc1ccc(-n2ccn(Cc3ccc(C)cc3)c(=O)c2=O)cc1OC | inactive: -9.43% | – |
| O=C(CSc1ccc2ccccc2n1)Nc1nsc(-c2ccc(Cl)cc2)n1 | inactive: 9.78% | – |
| COc1ccc(-c2noc(N3CCC(C(=O)Nc4ccc(C)c(F)c4)CC3)n2)cc1OC | inactive: -13.7% | – |
| COc1ccc(CNC(=O)c2cccc(NC(=O)N3CCSc4ncccc43)c2)cc1 | inactive: -9.22% | – |
| COc1ccc(Cl)cc1NC(=O)CCCn1c(C)c2cnn(-c3ccccc3)c(=O)c2c1C | inactive: 10.4% | – |
| COc1ccc(C2=Nc3ccc(C)cc3NC(c3ccc(Cl)cc3)=N2)cc1 | – | inactive |
| Cc1ccc(Cl)cc1N1C(=O)N(Cc2ccc(C#N)cc2)c2ccccc2S1(=O)=O | inactive: -15.2% | – |
| COc1ccc(N(Cc2ccccc2)C(=O)c2nc(SC)ncc2Cl)cc1 | – | inactive |
| COc1ccc(NC(=O)CCNS(=O)(=O)c2cccc3nsnc23)cc1OC | – | inactive |
| CCCCNC(=O)CSc1nc2ccccc2nc1Cc1ccc(Cl)cc1 | inactive: -9.58% | – |
| CCOc1cccc2cc(-c3nc4sc5c(c4c(=O)[nH]3)CCC(C)C5)c(=O)oc12 (stereo not given) | inactive: -2.62% | – |
| Cc1ccc(NC(=O)CC2Nc3cccc4cccc(c34)NC2=O)cc1 (stereo not given) | inactive: 0.486% | – |
| COc1cccc(Cn2c(=O)n(-c3ccc(Br)cc3F)c(=O)c3sc4ccccc4c32)c1 | inactive: 19.4% | – |
| Cc1ccc2nc(N(CCCN(C)C)C(=O)c3ccc(Br)s3)sc2c1 | inactive: -3.7% | – |
| CCCOc1cccc(C(=O)N(Cc2cc(OC)c(OC)c(OC)c2)C2CCS(=O)(=O)C2)c1 (stereo not given) | inactive: -0.163% | – |
| CC(C)c1ccc(NC(=O)c2cccn2-c2nnc(N3CCCCC3)s2)cc1 | – | inactive |

| Structure (SMILES) | activity change, negative = inhibition | outcome |
| --- | --- | --- |
| CCn1c(CN2CCC(C)CC2)nc2cc(NC(=O)COc3ccc([N+](=O)[O-])cc3)ccc21 | inactive: 2.21% | – |
| Cc1ccc(OCCn2nnc3sc4c(c3c2=O)CCC(C(C)(C)C)C4)cc1 (stereo not given) | inactive: 0.159% | – |
| Cc1ccc(NC(=O)c2cc3c(=O)[nH]c4ccccc4c3n2C)cc1F | inactive: -8.96% | – |
| COc1ccc(-c2cc(C(C)=O)c(C)n2CCC(=O)NCc2ccc(F)cc2)cc1 | inactive: 5.33% | – |
| CCCCn1c(CNC(=O)c2ccc(OC)cc2)nnc1SCC(=O)Nc1ccccc1 | – | inactive |
| Cc1ccc(CNC(=O)CCC(=O)N2CC(C)Sc3ccccc32)cc1 (stereo not given) | – | inactive |
| Cc1cccc(-n2ncc(C(=O)N3CCC(C)CC3)c2C2CCN(C(=O)OC(C)(C)C)CC2)c1 | inactive: -3.68% | – |
| COc1cc(C2CC(=O)Nc3c2c(=O)n(C)c(=O)n3C)cc(OC)c1OC (stereo not given) | inactive: -11.6% | – |
| CCOC(=O)c1cccc(NC(=O)CCCn2c(C)c3cnn(-c4ccccc4)c(=O)c3c2C)c1 | – | inactive |
| CC(=O)c1cccc(NS(=O)(=O)c2c(C)nc3sc(C)cn3c2=O)c1 | inactive: 2.79% | – |
| CCOC(=O)c1c(S(=O)(=O)NCC(=O)N2CCN(c3ccccc3OC)CC2)c(C)n(C)c1C | inactive: -8.99% | – |
| COc1ccc(CCNC(=O)NCc2noc3ccc(C)cc23)c(OC)c1 | inactive: 2.85% | – |
| CCN(CC)c1cc2c(cc1F)c(=O)c(S(=O)(=O)c1ccccc1)cn2Cc1ccccc1 | – | inactive |
| COc1ccc(S(=O)(=O)N(CC(=O)N2CCC(C)CC2)c2ccc(C)cc2)cc1 | inactive: -5.65% | – |
| COc1ccccc1-c1nn(CCC(=O)Nc2cccc(C(C)=O)c2)c2nc(C)cc(C)c12 | – | inactive |
| CCCCNC(=O)C(CC)Sc1nnc(-c2ccc(OC)c(OC)c2)c(-c2ccc(OC)c(OC)c2)n1 (stereo not given) | inactive: -55.4% | – |
| COc1cccc(NC(=O)c2cn(C3CCCCC3)c(=O)c3c2c2ccccc2n3C)c1 | – | inactive |
| Cc1ccc(-c2ccc(=O)n(C(C)C(=O)Nc3ccccc3Cl)n2)cc1C (stereo not given) | inactive: 1.84% | – |
| CCn1cc(C(=O)O)c(=O)c2cc(F)c(N3CCN(C)CC3)cc21 | inactive: -7.73% | – |
| CC1CCc2nc3ncn(CC(=O)Nc4cccc(C#N)c4)c(=O)c3cc2C1 (stereo not given) | inactive: -10.8% | – |
| COC(=O)c1ccc(Cn2c(SCc3cccc(C)c3)nc3ccncc32)cc1 | – | inactive |
| Cc1cc(C)c(/C=C/c2onc(C)c2S(=O)(=O)N2CCC(C(=O)N3CCN(c4ccccc4)CC3)CC2)c(C)c1 | inactive: -0.224% | – |
| CCOC(=O)c1sc2ncn(CC(=O)Nc3ccc(C)cc3C)c(=O)c2c1C | inactive: -9.89% | – |
| Cc1cc(N2CCC(C)CC2)nc2ccc(NC(=O)CCC(=O)N3CCN(c4cccc(C(F)(F)F)c4)CC3)cc12 | inactive: -6.76% | – |

| Structure (SMILES) | activity change, negative = inhibition | outcome |
| --- | --- | --- |
| CCc1ccccc1Nc1nn2c(=O)c3ccc(C(=O)Nc4cc(C)cc(C)c4)cc3nc2s1 | inactive: 0.597% | – |
| COc1ccc(C(=O)NCC(c2cccs2)S(=O)(=O)c2ccc(C)cc2)cc1 (stereo not given) | inactive: -1.15% | – |
| O=S(=O)(Nc1ccc(-c2ccc(N3CCCC3)nn2)cc1)c1ccc(Br)cc1 | – | inactive |
| Cc1ccc(NS(=O)(=O)c2ccc3c(c2)NC(=O)CCS3)c(Br)c1 | – | inactive |
| CCOc1ccccc1NC(=O)C(C)Sc1nc2c(c(=O)[nH]1)CCCC2 (stereo not given) | inactive: -0.144% | – |
| CCc1cccc(CC)c1NC1=NS(=O)(=O)c2ccccc21 | inactive: 2.93% | – |
| Cc1ccc(CC(=O)Nc2c(C(=O)N3CCN(c4ccccc4F)CC3)oc3ccccc23)cc1 | inactive: -3.89% | – |
| Cc1cc(F)ccc1NC(=O)c1sc2nc(-c3cccs3)ccc2c1N | inactive: -22.8% | – |
| Cc1nn(C)c2c1c(C(F)(F)F)cc(=O)n2CC(=O)NCc1ccccc1Cl | inactive: 6.25% | – |
| CCOC(=O)C1=C(CN2CCC(C(=O)OCC)CC2)NC(=O)NC1c1ccc(Cl)cc1 (stereo not given) | inactive: -2.46% | – |
| Cc1oc(-c2ccccc2)nc1CNC(=O)Nc1ccccc1 | inactive: -2.59% | – |
| CCn1nc(-c2ccccc2)c(-c2ccccc2)c(C(=O)OCCOC)c1=O | – | inactive |
| CN1C(C(=O)Nc2ccc(F)cc2F)=CC(c2cccs2)=NS1(=O)=O | inactive: 1.65% | – |
| Cc1ccc2c(=O)cc(C(=O)Nc3nnc(C)s3)oc2c1 | inactive: -7.28% | – |
| COc1ccc(-c2cc(C(=O)Nc3c(C)nn(Cc4ccc(F)cc4)c3C)no2)cc1OC | inactive: 3.92% | – |
| CCOC(=O)c1ccccc1NC(=O)CCc1c(C)nc2ncnn2c1C | inactive: -15.4% | – |
| CCOCCCNC(=O)CCc1nnc2ccc(N3CCN(c4cccc(OC)c4)CC3)nn12 | inactive: 9.08% | – |
| Cc1ccc(NCc2nnc3n2CCCCC3)cc1Cl | inactive: 2.75% | – |
| Cc1ccc(CN(C(=O)COc2ccc(C)c(C)c2)C2CCS(=O)(=O)C2)o1 (stereo not given) | inactive: 1.46% | – |
| CCOc1ccc(-n2c(=O)c3c(C)c(C(=O)N(C)C)sc3n(CC(=O)Nc3c(C)cc(C)cc3C)c2=O)cc1 | – | inactive |
| Cc1cccc(NC(=O)CSc2nc3c([nH]c4ccccc43)c(=O)n2C)c1 | – | inactive |
| CC(C)N(C(=O)Cn1cc(S(=O)(=O)Cc2ccc(C(F)(F)F)cc2)c2ccccc21)C(C)C | inactive: 8.84% | – |
| Cc1ccc(Nc2c(-c3ccccc3O)nc3ccc(Br)cn23)cc1 | inactive: 8.08% | – |
